Assay results as given in the BET-seq Pho4 binding data (Le et al. 2018).
Some of the results follow. Values were computed here from the reads of four pooled replicates and scatter widely.

Target: T1, Pho4 (S. cerevisiae) (UniProt P07270)
T1 sequence: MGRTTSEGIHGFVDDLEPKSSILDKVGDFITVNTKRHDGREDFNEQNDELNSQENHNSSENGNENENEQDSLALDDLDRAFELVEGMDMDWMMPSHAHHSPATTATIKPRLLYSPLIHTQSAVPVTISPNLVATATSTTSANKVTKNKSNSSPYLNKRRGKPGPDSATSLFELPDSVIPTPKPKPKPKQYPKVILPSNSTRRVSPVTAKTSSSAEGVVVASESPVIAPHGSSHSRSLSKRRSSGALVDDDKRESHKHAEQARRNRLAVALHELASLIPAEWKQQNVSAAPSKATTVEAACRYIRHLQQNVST
Test: relative binding free energy (BET-seq); higher = weaker binding
Conditions: reference: library average

Sequence	relative binding free energy [kcal/mol]
TTATACACGTGCGGTT	0.01
TGACGCACGTGGAGGT	-0.16
GGATGCACGTGGCAAG	-0.1
CTATGCACGTGTGGCG	-0.02
TCATTCACGTGGCGGG	0.19
GAAGACACGTGCTGGG	0.1
TGTGCCACGTGGACTG	-0.02
TGAGACACGTGGGTCT	-0.01
TAAGCCACGTGTTAGG	-0.09
ATTAACACGTGGTGGC	-0.03
TGGCCCACGTGGTTTG	-0.22
TGGTACACGTGCTTTG	-0.03
GGGTTCACGTGTAAAA	0.26
AGTTGCACGTGTGTGT	0.03
TCATACACGTGTGAGG	0.24
TTTCGCACGTGATTTT	0.11
TTGTGCACGTGGGCCT	-0.22
CAAGGCACGTGATGTT	-0.01
ATTTGCACGTGTTAAT	0.06
GCTGGCACGTGGTGGA	-0.09
GTAGTCACGTGGTACT	0.03
TTGTCCACGTGGTTGC	0.1
GAAGACACGTGTGGGT	0.18

Sequence	relative binding free energy [kcal/mol]
ACTGACACGTGGGGGG	-0.13
AACTTCACGTGTGGTT	0.23
TTTGTCACGTGGCACG	-0.04
TTTAGCACGTGCTCGT	-0.13
TGATTCACGTGGTTAG	0.31
AGTCTCACGTGCGTGG	0.14
TATTGCACGTGCAATG	0.05
ATTTTCACGTGAAGGA	0.27
TATGACACGTGGTGTA	-0.17
TTTCACACGTGTTTAA	0.02
TTGACCACGTGTATTT	0.08
TGGGGCACGTGAATGC	0.01
GTGAGCACGTGTTAAA	0.12
AAGGGCACGTGGGACT	-0.26
TGTTGCACGTGTGTGA	0.08
GGGGCCACGTGAGGGT	0.31
AGGTACACGTGGATGT	0.02
AAGAACACGTGTTAGT	0.04
ATTGCCACGTGGGTAT	-0.16
TTGCTCACGTGTGAGG	0.21
TGGTGCACGTGACTGG	0.14
TTGAACACGTGATGTA	0.11
TTAGCCACGTGTTTGT	-0.17

Sequence	relative binding free energy [kcal/mol]
CATATCACGTGGGGAT	-0.06
TGGGGCACGTGCTCAG	-0.12
TATTTCACGTGGATGC	0.2
CGCGGCACGTGGCTGG	-0.16
TAATGCACGTGGAAAT	0.13
TCGTCCACGTGTAGTG	0.14
AAGTACACGTGGTGGG	0.01
GGTTTCACGTGGGCAA	0.24
ATTAACACGTGGTTAT	-0.06
GTTGTCACGTGAGGAC	0.41
CAATGCACGTGAGAGG	0.25
GGCTTCACGTGTTGAG	0.27
TTTTTCACGTGAAAGA	0.53
TGTAACACGTGAGTGG	0.25
TTGACCACGTGGTTTT	-0.12
TTGGACACGTGAAGGG	0.27
ATATGCACGTGATTAG	0.02
GGTCTCACGTGTTTGG	0.33
GACGTCACGTGTTATG	0.23
TGATGCACGTGCAGTG	-0.16
AGCCGCACGTGGGGTG	-0.43
TTTTACACGTGGGTTA	-0.02
AGGATCACGTGGTACT	0.15

Sequence	relative binding free energy [kcal/mol]
TAAAGCACGTGTTATT	-0.01
TCGGGCACGTGGGGGA	-0.24
AATCTCACGTGTAGGT	0.16
GGTATCACGTGTACGG	0.14
TTGATCACGTGGTGAC	0.15
CTGTCCACGTGTGGGA	-0.05
GTAGGCACGTGGAATT	0.09
TCTATCACGTGTTAGT	0.07
TCGTGCACGTGTTTGG	-0.12
GAAGTCACGTGTCTGT	0.19
ATTAGCACGTGTATGA	-0.06
TGTGGCACGTGTGGTG	-0.02
ATTTACACGTGTATAG	-0.01
ACTGTCACGTGCGTTT	0.14
TTGTTCACGTGCCGAT	0.22
AGCGGCACGTGGAATG	-0.09
AAATGCACGTGTGTTT	0.09
TGAGGCACGTGGTGGT	-0.06
GTTTTCACGTGTTCTA	0.23
CTGAACACGTGGGTTA	0
GTGGTCACGTGGGAAG	0.03
TTTGTCACGTGAGCAA	0.27
GTTGTCACGTGCGATA	0.11

Sequence	relative binding free energy [kcal/mol]
AGGGACACGTGATGAG	0.03
GATTTCACGTGGGTGA	0.25
GTGATCACGTGTAGGT	0.08
TCTTTCACGTGGCGGT	0.25
TTTATCACGTGATACG	0.13
CGTGACACGTGTTGTG	-0.12
TTTGGCACGTGACTAA	0.12
TTGGTCACGTGGTTTC	0.27
TAAGTCACGTGTTCTT	0.07
GTTCTCACGTGTTTGT	0.19
CAAGGCACGTGGAGGT	-0.19
AATGCCACGTGGGGAG	-0.08
GTGGACACGTGGAAGG	0.02
GGCGGCACGTGAGCGA	0.11
ATCTACACGTGGTGTT	0.11
GATCGCACGTGATGGT	0.31
TAAATCACGTGGGGAA	0.09
GTTGACACGTGTTGTG	0.05
GAGGTCACGTGTTAGC	0.22
CTTGTCACGTGCGGGG	-0.07
GGTGGCACGTGTCGCA	0
TCGGCCACGTGTGGTG	0.02
TGGTGCACGTGGAGGG	0.01
